Assay results as given in a collection of fitness landscapes (doi:10.1016/j.celrep.2020.107928).
Over roughly 81,000 sequences, “one-hybrid fitness for binding NBS DNA” has its median near -0.1; the highest 2% begin near 0.36. The list shows a part of the results.

B1: Caulobacter ParB omega fusion; a variant is named by its letters at X, in order, B8GW30 (parent)
chain: MESVVVGEPGMSEGRRGLGRGLSALLGEVDAAPAQAPGEQLGGSREAPIEILQRNPDQPRRTFREEDLEDLSNSIREKGVLQPILVRPSPDTAGEYQIVAGERAWRAAQRAGLKTVPIMVRELDDLAVLEIGIIENVQRADLNVLEEALSYKVLMEKFERTQENIAQTIGKSXSHVANXMRLLXLPDEVQSYLVSGELTAXHARAIAAAADPVALAKQIIEGGLSVRETEALARKAPNLSAGKSKGGRPPRVKDTDTQALESDLSSVLGLDVSIDHRGSTGTLTITYATLEQLDDLCNRLTRGI

Variants of: B1
Experiment: one-hybrid fitness for binding NBS DNA (the Noc-binding site; scaled: cognate 1, non-cognate 0); higher = stronger binding
Settings: with NBS DNA site
In short: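 Fitness here means the log change in variant-to-wild-type read ratio between plasmids sequenced before and after selection. That scale was set so cognate equals 1 and non-cognate equals 0. The selection was a bacterial one-hybrid screen of Caulobacter ParB libraries, four specificity codons randomised, in E. coli USO carrying a HIS3 reporter with the site 19 bp from the promoter, grown 48 hours at 37°C on M9-minus-histidine with 0.1 mM IPTG and 5 mM 3-AT.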

| Variant | one-hybrid fitness for binding NBS DNA |
| --- | --- |
| RHEY | ≤ 0.2 |
| AARF | ≤ 0.2 |
| KRVY | ≤ 0.2 |
| AHHG | ≤ 0.2 |
| ALVY | ≤ 0.2 |
| NNDM | ≤ 0.2 |
| AYSS | ≤ 0.2 |
| RKND | ≤ 0.2 |
| YWVR | ≤ 0.2 |
| YLKG | ≤ 0.2 |
| LRKR | 0.452 |
| LKKP | ≤ 0.2 |
| QEKW | ≤ 0.2 |
| ISVT | ≤ 0.2 |
| SYAN | ≤ 0.2 |
| GYPH | ≤ 0.2 |
| CMGR | ≤ 0.2 |
| CAHE | ≤ 0.2 |
| QYVP | ≤ 0.2 |
| SNRW | ≤ 0.2 |
| EMVS | ≤ 0.2 |
| RNDN | ≤ 0.2 |
| IVQR | ≤ 0.2 |
| QCHQ | 0.269 |
| SQKS | ≤ 0.2 |
| DEPR | ≤ 0.2 |

| Variant | one-hybrid fitness for binding NBS DNA |
| --- | --- |
| RYCD | ≤ 0.2 |
| YPSI | ≤ 0.2 |
| DLLF | ≤ 0.2 |
| TCAN | ≤ 0.2 |
| FHNR | ≤ 0.2 |
| SSRN | ≤ 0.2 |
| RFRI | ≤ 0.2 |
| VLYF | ≤ 0.2 |
| THVD | ≤ 0.2 |
| TVHL | ≤ 0.2 |
| PVPV | ≤ 0.2 |
| NSPK | ≤ 0.2 |
| DHNW | ≤ 0.2 |
| QSRV | 0.396 |
| SDAM | ≤ 0.2 |
| QYMR | 0.482 |
| EGTT | ≤ 0.2 |
| VHME | ≤ 0.2 |
| PIAV | ≤ 0.2 |
| INCV | ≤ 0.2 |
| RNLL | ≤ 0.2 |
| HQWA | ≤ 0.2 |
| LYWT | ≤ 0.2 |
| VSNG | ≤ 0.2 |
| RCHE | ≤ 0.2 |
| RTEQ | ≤ 0.2 |

| Variant | one-hybrid fitness for binding NBS DNA |
| --- | --- |
| YEES | ≤ 0.2 |
| AGEC | ≤ 0.2 |
| YQRL | ≤ 0.2 |
| TPHM | ≤ 0.2 |
| PYER | ≤ 0.2 |
| LPSE | ≤ 0.2 |
| DSWA | ≤ 0.2 |
| RLPD | ≤ 0.2 |
| QATW | ≤ 0.2 |
| TCIC | ≤ 0.2 |
| YQRA | ≤ 0.2 |
| EGFL | ≤ 0.2 |
| LRAG | ≤ 0.2 |
| VLFS | ≤ 0.2 |
| GTRG | ≤ 0.2 |
| TVIL | ≤ 0.2 |
| LMHT | ≤ 0.2 |
| KTDG | ≤ 0.2 |
| NQQW | ≤ 0.2 |
| TVDR | ≤ 0.2 |
| VLYQ | ≤ 0.2 |
| NGGG | ≤ 0.2 |
| NYPL | ≤ 0.2 |
| TNYT | ≤ 0.2 |
| WCAT | ≤ 0.2 |
| QWHS | ≤ 0.2 |

| Variant | one-hybrid fitness for binding NBS DNA |
| --- | --- |
| PTWL | ≤ 0.2 |
| RNER | 0.361 |
| NTTN | ≤ 0.2 |
| KQRP | ≤ 0.2 |
| CRKR | 0.417 |
| HANW | ≤ 0.2 |
| LGKI | ≤ 0.2 |
| TNYP | ≤ 0.2 |
| THLI | ≤ 0.2 |
| TMIE | ≤ 0.2 |
| VAGY | ≤ 0.2 |
| RIKP | ≤ 0.2 |
| PRAL | ≤ 0.2 |
| SLKD | ≤ 0.2 |
| YDEP | ≤ 0.2 |
| TMFT | ≤ 0.2 |
| EPFC | ≤ 0.2 |
| NHYN | ≤ 0.2 |
| TMGC | ≤ 0.2 |
| YFAS | ≤ 0.2 |
| TSGW | ≤ 0.2 |
| RERD | ≤ 0.2 |
| CVES | ≤ 0.2 |
| GDTR | ≤ 0.2 |
| KNCV | ≤ 0.2 |
| EQRR | 0.201 |

| Variant | one-hybrid fitness for binding NBS DNA |
| --- | --- |
| QMGR | 0.591 |
| QRPE | ≤ 0.2 |
| MGAS | ≤ 0.2 |
| ETNK | ≤ 0.2 |
| VKFG | ≤ 0.2 |
| IELT | ≤ 0.2 |
| TPSK | ≤ 0.2 |
| LQPS | ≤ 0.2 |
| LACV | ≤ 0.2 |
| IAVW | ≤ 0.2 |
| RWEK | ≤ 0.2 |
| GLLQ | ≤ 0.2 |
| EATK | ≤ 0.2 |
| MSAW | ≤ 0.2 |
| APFA | ≤ 0.2 |
| KAMR | ≤ 0.2 |
| ANPC | ≤ 0.2 |
| ISDG | ≤ 0.2 |
| RLKH | 0.35 |
| CIMR | ≤ 0.2 |
| SMQC | ≤ 0.2 |
| CHYC | ≤ 0.2 |
| VRHA | ≤ 0.2 |
| AKTM | ≤ 0.2 |
| AFTD | ≤ 0.2 |
| KPTW | ≤ 0.2 |

| Variant | one-hybrid fitness for binding NBS DNA |
| --- | --- |
| QYRF | 0.248 |
| VYKS | ≤ 0.2 |
| MTNR | ≤ 0.2 |
| ERLI | ≤ 0.2 |
| NQLY | ≤ 0.2 |
| HKER | ≤ 0.2 |
| PAAL | ≤ 0.2 |
| YMTN | ≤ 0.2 |
| SYVV | ≤ 0.2 |
| ENQV | ≤ 0.2 |
| TNGR | ≤ 0.2 |
| MSNR | ≤ 0.2 |
| TAMA | ≤ 0.2 |
| QLIQ | ≤ 0.2 |
| FSQT | ≤ 0.2 |
| WMQR | ≤ 0.2 |
| GAME | ≤ 0.2 |
| WMKG | ≤ 0.2 |
| GPHL | ≤ 0.2 |
| THWT | ≤ 0.2 |
| RDQS | ≤ 0.2 |
| TRDC | ≤ 0.2 |
| RGQD | ≤ 0.2 |
